# Data reported in PubChem BioAssay AID624296 (National Center for Advancing Translational Sciences (NCATS), 2012).
# The whole screen tested about 350,000 compounds, of which about 9,900 (2.8%) were called active. The inconclusive results got no clear call from the source; some entries with a clear call stand among them for comparison. Calls come from the whole dose curve; as a rule, active = well fitted activation curve with a large enough effect; inconclusive = small, poorly fitted or top-dose-only effect; inactive = no such curve, though single readings can be large or run the other way. Potencies of inconclusive entries are left out as doubtful fits.
# Experiment: A quantitative high throughput screen for small molecules that induce DNA re-replication in MCF 10a normal breast cells. For activity, positive = re-replication: % of control where 0% means no effect. Note: nearly all actives have a fitted effect of over 50% in size.
# Conditions: MCF 10A DNA re-replication, Hoechst nuclear intensity, 48 h; activity, positive = re-replication: at 46.1 µM (top of the series)
# Potency is the fitted concentration of half-maximal effect; tags give direction and shape of the fitted curve.
SMILES,Potency,"activity, positive = re-replication"
COc1ccc(C2OC(=O)CC2C(=O)NC(C)C)cc1 (stereo not given),"inconclusive [activator, partial curve, poor fit]",–
O=S(=O)(Nc1ccccc1)c1ccc(Oc2ncc(C(F)(F)F)cc2Cl)cc1,"inconclusive [activator, single point]",–
CC(C)[C@H]1C(=O)Nc2ccccc2N1C(=O)N[C@@H](Cc1ccccc1)C(=O)N[C@@H](C(=O)O)c1ccccc1,"inconclusive [activator, full curve, poor fit]",–
CCOC(=O)CCS(=O)(=O)c1nc(-c2ccccc2)cc(C(F)(F)F)n1,"inconclusive [activator, single point]",–
Cc1cc(C)c2oc(-c3ccc(C)c(NC(=S)NC(=O)c4cccs4)c3)nc2c1,active: 9.2 µM,–
Cc1ccc(C(=O)CCNc2cccc(Br)c2)o1,"inconclusive [activator, single point]",–
CCn1c(-c2cc(-c3ccccc3OC)nc3ccccc23)n[nH]c1=S,"inconclusive [activator, partial curve, poor fit]",–
Cc1onc(-c2ccccc2)c1C(=O)Nc1nc2c(s1)C(=O)CC(C)(C)C2,"inconclusive [activator, partial curve, poor fit]",–
O=C(C/C=N/OCc1ccc(Cl)cc1Cl)c1ccc(Cl)cc1,"inconclusive [activator, partial curve, poor fit]",–
OCCC1CN(Cc2cc3ccccc3o2)CCN1Cc1ccc(F)cc1 (stereo not given),"inconclusive [activator, partial curve, poor fit]",–
COc1cccc(/C=C2\SC(=S)N(CCCC(=O)N3CCCCC3)C2=O)c1,–,inactive: 28.3%
FC(F)(F)c1cc(-c2cccs2)nc2cc(-c3cccs3)nn12,"inconclusive [activator, full curve, poor fit]",–
Cc1cc(NC(=O)Cc2ccccc2)c2ccccc2n1,"inconclusive [activator, single point]",–
COc1ccc2sc(-c3ccc(SC)cc3)c(C#CC(C)(C)O)c2c1,"inconclusive [activator, single point]",–
CCCOC1CCCN(C(=O)c2cc(COc3ccc(F)c(F)c3)on2)C1 (stereo not given),"inconclusive [activator, single point]",–
COc1cc(CCC(=O)OCC(=O)Nc2c(C)cc(C)cc2C)cc(OC)c1OC,"inconclusive [activator, single point]",–
CCN(c1ccccc1)S(=O)(=O)c1ccc(N2CCN(c3ccc(O)cc3)CC2)nc1,active: 18.4 µM,–
COCCCN=C(c1ccco1)n1c(=S)nc(-c2ccco2)n(CCCOC)c1=S,"inconclusive [activator, single point]",–
Cc1nc(/C=C\C(=O)O)c2cc(C)oc2n1,–,inactive: 6.59%
O=C(NNS(=O)(=O)c1ccc2ccccc2c1)c1cc(-c2ccccn2)nc2ccccc12,"inconclusive [activator, partial curve, poor fit]",–

SMILES,Potency,"activity, positive = re-replication"
Cc1ccc(-c2nc(Nc3ccc(O)cc3)c3ccccc3n2)cc1,"inconclusive [activator, single point]",–
COc1ccc(NC(=O)c2sc3nc(C)nc(N4CCN(c5ccccn5)CC4)c3c2C)c(OC)c1,"inconclusive [activator, partial curve, poor fit]",–
COc1ccc(CNc2ccc(C(=O)O)cc2)cc1,"inconclusive [activator, partial curve, poor fit]",–
O=C(CCN1CCc2ccccc2CC1)c1ccc2c(c1)OCCO2,active: 1.3 µM,–
COc1ccc(NC(=O)c2ccc(NC(=O)COC(=O)c3cnc(C)cn3)cc2)cc1,–,inactive: -12.3%
CC(C)OCCCN1C(=O)c2[nH]nc(-c3ccccc3O)c2C1c1cccc(Cl)c1 (stereo not given),"inconclusive [activator, single point]",–
Oc1ccc(N2CCN(c3ccnc4cc(Cl)ccc34)CC2)cc1,"inconclusive [activator, partial curve]",–
CN(C)CCCNc1ncnc2oc(-c3ccccc3)c(-c3ccccc3)c12,"inconclusive [activator, single point]",–
Brc1csc(/C=N/Nc2nc3ccccc3s2)c1,"inconclusive [activator, single point]",–
CCCN1C2CCCC1CC(NC(=O)c1ccc(Br)cc1)C2 (stereo not given),"inconclusive [activator, single point]",–
CCCCn1c(SCC(=O)Nc2nnc(CC)s2)nc2c1c(=O)n(C)c(=O)n2C,–,inactive: 1.23%
CC(C)(C)OC(=O)N(Cc1ccccc1)Cc1ccccc1OCc1cccc(NC(=O)c2ccccc2)c1,"inconclusive [activator, single point]",–
Cc1ccccc1NC(=O)Cc1nnc(SCC(=O)NC2=NCCS2)n1C,"inconclusive [activator, single point]",–
CCOc1ccccc1-c1nc(C(N)=O)c2[nH]c(=O)n(-c3ccccc3)c2n1,"inconclusive [activator, partial curve, poor fit]",–
COc1cc(NC(=O)c2cccs2)ccc1NC(=O)c1ccco1,"inconclusive [activator, single point]",–
COc1cccc(-c2cc(C(=O)N3CCOCC3)no2)c1,–,inactive: 4.38%
COc1ccc(N2CCN(c3nc4c(c(=O)n(C)c(=O)n4C)n3Cc3ccccc3)CC2)cc1,–,inactive: 17.4%
CC(=O)NN1C(=O)/C(=C\c2ccc(Br)o2)SC1=S,"inconclusive [activator, partial curve, poor fit]",–
O=c1c2cnn(-c3ccccc3)c2nc(-c2ccco2)n1-c1ccccc1,"inconclusive [activator, partial curve, poor fit]",–
Cc1cc(C(=O)OC(C(=O)Nc2cccc(C(F)(F)F)c2)c2ccccc2)c(C)o1 (stereo not given),"inconclusive [activator, single point]",–
